# Experimental data taken from the supplement of paper PMC5499739.
# Over roughly 16,000 sequences, “Z-score” has its median near -0.37; the highest 2% begin near 3.2. Some of the results follow.
# System: RBM10 RRM1-ZnF (GST-tagged construct)
# Experiment: RNAcompete 7-mer binding Z-score; higher = stronger binding preference
# Protocol: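 RNAcompete: 20 pmol GST-tagged RBM10 RNA-binding constructs were incubated with a designed RNA pool of about 241,000 sequences up to 41 nt (1.5 nmol) on glutathione beads for 30 min at 4 °C and washed. Bound RNAs were identified by microarray hybridisation. Each RNA 7-mer is scored by a one-sided Z-score of its enrichment, computed over probes that contain the 7-mer within longer pool sequences.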
row,Sequence,RNAcompete 7-mer binding Z-score
1,GUUACGC,-0.0187
2,GAUAGAA,0.335
3,GUCUAUG,-0.292
4,CCGAGUA,-0.633
5,AUGUAAU,-0.165
6,UAUGGAA,1.22
7,CUCCUGG,-0.269
8,UCGAUUC,-0.72
9,GCCGACA,-0.36
10,UGCUCCG,-0.558
11,CGUUAGU,-0.298
12,AUCGAUG,-0.0999
13,UGGAAGG,4.12
14,GCGGGAA,2.66
15,CUAGAGU,-0.288
16,CAACUCU,-0.928
17,CCCCUAC,-0.513
18,CCAUUCA,-0.896
19,GACGAUC,-0.454
20,CAUGGUC,0.137
21,AGUGUCG,0.0138
22,AAGGGCG,3
23,GAUCGGU,0.602
24,UGCGGAA,1.25

row,Sequence,RNAcompete 7-mer binding Z-score
1,UUAUUCU,-0.828
2,CAGUCAG,0.082
3,AAUUAAC,-0.435
4,AUCCAAU,-0.694
5,CGCUGAA,-0.396
6,CAGUCCA,-0.578
7,ACCUACU,-0.746
8,GUCGAGA,-0.0414
9,UCUAGCU,-0.769
10,UGAAGAC,-0.0999
11,AUUUGUG,-0.191
12,AUGAAUG,0.849
13,GCACGAA,-0.0544
14,CUCGGAA,-0.0934
15,CUAAAAU,-0.529
16,UGCGUGC,-0.34
17,UAUCGAC,-0.701
18,GCCUAUU,-0.834
19,CUUGAUC,-0.808
20,UCUCACG,-0.61
21,AACCUCG,-0.704
22,GGGUAAG,4.39
23,CGUCAAG,-0.145
24,CCGAAAG,-0.578

row,Sequence,RNAcompete 7-mer binding Z-score
1,CUCGGAG,-0.022
2,UGGAGCA,2.13
3,CACACAA,-0.587
4,GCACCGU,-0.347
5,CGGGUCC,0.729
6,AAAUACG,-0.188
7,UACUUGC,-0.759
8,AUAUCUG,-0.539
9,CUAUGAC,-0.698
10,AUGCCUA,-0.766
11,GCCAAUA,-0.607
12,UCGCACU,-0.565
13,ACAGGUC,0.03
14,AGUGGGA,4.13
15,CGGGGGC,2.25
16,CUAAGUG,-0.22
17,UCAAUCC,-0.72
18,CAGACGG,0.709
19,GCUCUAA,-0.613
20,AGUCAAU,-0.383
21,GACGCAG,0.0593
22,AUGCCGG,-0.132
23,CAUCUAU,-0.769
24,AGGGCGG,2.1

row,Sequence,RNAcompete 7-mer binding Z-score
1,GAUAAAG,1.22
2,GUCCUAU,-0.675
3,UGCCCGC,-0.191
4,ACGGAUC,-0.0544
5,GUGGUAU,1.43
6,CCGAGAU,-0.392
7,UUCUUUA,-0.802
8,CUUUGUC,-0.922
9,UCCACAC,-0.639
10,CAAUUUG,-0.782
11,GGUCUUG,-0.11
12,AUACUCU,-0.818
13,CACCACG,-0.0187
14,AGGCCCU,-0.88
15,UCUUGUA,-0.724
16,UAAACGA,-0.37
17,UCCGUAU,-0.837
18,CGUUAUG,-0.214
19,CCUCAAU,-0.86
20,UGCAAUU,-0.431
21,UGGAGGC,1.96
22,ACAUUCC,-0.789
23,CUCCUCC,-0.558
24,AUUUCGA,-0.72

row,Sequence,RNAcompete 7-mer binding Z-score
1,AUUAUCG,-0.509
2,GUCGCCU,-0.298
3,UUGCCUC,-0.733
4,CGUAGAG,0.381
5,AGCAGCC,-0.461
6,CACUUUA,-0.789
7,GUCUGAA,-0.604
8,AGUCACG,0.0138
9,UCGCGCG,-0.191
10,GCCGAGG,0.543
11,CCCCCUU,-0.431
12,CGUAACC,-0.681
13,AUAAAUG,-0.103
14,UCACUCG,-0.561
15,UGAGCGU,0.231
16,CAGCAGU,-0.269
17,CCACGAA,-0.418
18,AGAAUCU,-0.766
19,CACGCCU,-0.649
20,UGGUACU,0.277
21,AGCUUUC,-0.75
22,GGGUCCC,0.917
23,AGGCUGA,0.511
24,UGUGGCA,0.407

row,Sequence,RNAcompete 7-mer binding Z-score
1,GCGUUGU,-0.0707
2,UUAUCUC,-0.772
3,UUAAAAA,-0.444
4,CACGGAG,0.813
5,UUACCGC,-0.789
6,UCCCAGU,-0.516
7,GCCUGUA,-0.701
8,GCCGGAG,0.368
9,CAUUGCU,-0.727
10,UGGAACA,1.13
11,CAUAAAC,-0.594
12,UUGGCCG,-0.149
13,ACAGGCG,0.829
14,UCGAAAC,-0.578
15,UAUUCGU,-0.717
16,UCUAUCG,-0.711
17,CCCGUGC,-0.262
18,AUGGCAG,1.12
19,CCGAAUC,-0.824
20,GACCACG,-0.496
21,GCGAGCA,0.972
22,GGAAAGC,1.8
23,UGCUAAU,-0.604
24,GUGGGCC,1.46

row,Sequence,RNAcompete 7-mer binding Z-score
1,GGCUUAG,0.527
2,AAGACCC,-0.776
3,AGCAACC,-0.766
4,AUUGGUC,0.000789
5,AGUAGCA,0.179
6,AUUCGAA,-0.565
7,CGGACAG,0.703
8,UCACCAG,-0.574
9,UGUGUGA,0.511
10,AUCUACG,-0.545
11,GACCGUG,-0.337
12,GCAAACU,-0.285
13,GUGAUAG,1.16
14,CUAGCUU,-0.785
15,GGAGACG,1.86
16,UAUUUUA,-0.841
17,UAUUUUC,-0.948
18,CCCCCCA,-0.249
19,GGGUCUU,0.524
20,CCCGCAC,-0.467
21,ACCAGGC,-0.467
22,CGGCAGG,0.992
23,UCCACGU,-0.552
24,GUCGUCU,-0.542

row,Sequence,RNAcompete 7-mer binding Z-score
1,CCACGGG,1.12
2,AGCAUGC,-0.379
3,GCUAUCU,-0.743
4,GAGCGUA,0.348
5,AAUGCCC,-0.613
6,UAAUAAA,-0.594
7,GAAUGUA,0.894
8,ACUGGGC,1.09
9,CUGACGA,-0.347
10,CUUGGUU,-0.279
11,GAUAAUU,-0.412
12,AACCUAC,-0.668
13,CUCGUAC,-0.584
14,GCCAGGU,0.426
15,GGAAACC,0.547
16,CAAGUUA,-0.402
17,CAUUGUU,-0.48
18,ACCCUCU,-0.876
19,GCGUUAU,-0.149
20,AAGAAAA,0.102
21,GUGCCGU,-0.0512
22,AUAGCCG,-0.269
23,ACCAGUG,-0.184
24,GACGACC,-0.519

row,Sequence,RNAcompete 7-mer binding Z-score
1,AUUGACA,-0.123
2,CCGGACU,-0.334
3,AAAAGUA,0.134
4,UUUUGCU,-0.776
5,GAAUGAA,0.287
6,UGUGAGA,0.764
7,UGGACGC,0.446
8,CGGAACU,0.14
9,GGUCUUA,-0.474
10,UACUAUA,-0.438
11,AGUCAGC,-0.262
12,ACUUCUG,-0.847
13,GUUCUAC,-0.821
14,ACACCAU,-0.649
15,UAAGCGC,-0.415
16,CGGUGAA,0.595
17,GUAGCUG,0.225
18,AACAUCA,-0.503
19,AAUAACA,-0.308
20,CUCCUGC,-0.698
21,AUAACGG,0.641
22,CGCCGAG,-0.522
23,GCAACCU,-0.688
24,AUCCUCG,-0.818

row,Sequence,RNAcompete 7-mer binding Z-score
1,UCGCUCC,-0.629
2,GUUGCCA,-0.448
3,GCCCUAC,-0.607
4,UGUCGCG,-0.262
5,CCACAGU,-0.379
6,CUGUGGC,-0.0804
7,UCCCCAG,-0.412
8,GAUACUC,-0.707
9,UCGUACG,-0.246
10,CUGACAU,-0.457
11,CCCCACA,-0.555
12,GAGAAAU,0.348
13,UCACCUU,-0.782
14,CGACCAG,-0.282
15,GCCGUUU,-0.951
16,GGUGCCC,0.277
17,CUGACCA,-0.659
18,AGAAAGG,4.58
